Test results taken from PubChem BioAssay AID624296 (National Center for Advancing Translational Sciences (NCATS), 2012).
In all, about 350,000 compounds went through this assay and about 9,900 (2.8%) were called active. The inconclusive results got no clear call from the source; some entries with a clear call stand among them for comparison. The call rests on the fitted dose curve; in most records, active means well fitted activation curve with a large enough effect; inconclusive means small, poorly fitted or top-dose-only effect; inactive means no such curve, though single readings can be large or run the other way. Potencies of inconclusive entries are left out as doubtful fits.

Assay: A quantitative high throughput screen for small molecules that induce DNA re-replication in MCF 10a normal breast cells. Further: nearly all actives have a fitted effect of over 50% in size. On activity, positive = re-replication: % of control where 0% means no effect.
Conditions: MCF 10A DNA re-replication, Hoechst nuclear intensity, 48 h
[1] = activity, positive = re-replication: at 46.1 µM (top of the series)
Potency means the concentration at half of the fitted maximal effect; tags describe the fitted curve by direction and shape.

Question: For `N/C(Cc1ccc([N+](=O)[O-])cc1)=N\OC(=O)c1ccc2ccccc2c1`, which Potency [1] is on record?
Answer: The Potency was inconclusive [activator, single point].

Question: Which Potency [1] does the source give for `O=C(Nc1ccccc1F)c1coc(=O)c(Br)c1` here?
Answer: Its Potency is inconclusive [activator, single point].

Question: With `COC(=O)Cc1cc(=O)[nH]c(Nc2nc3ccccc3o2)n1` as the compound, how does the Potency [1] read?
Answer: Its Potency is “inactive”.

Question: With `CCOC(=O)c1c(C)[nH]c(C(=O)OCC(=O)N2CCc3ccccc32)c1C` as the compound, how does the Potency [1] read?
Answer: The Potency was “inactive”.

Question: For `CCOC(=O)C1CCN(S(=O)(=O)CCNC(=O)c2ccc(F)cc2)CC1`, which Potency [1] is on record?
Answer: Its Potency is “inactive”.

Question: For `CCOC(=O)c1sc(C)c2c(=O)n(CC)nnc12`, which Potency [1] is on record?
Answer: Its Potency is inconclusive [activator, single point].

Question: For `CCC(C)c1ccc(NC(=O)c2ccco2)cc1` (stereo unspecified), which Potency [1] is on record?
Answer: The Potency was “inactive”.

Question: Which Potency [1] does the source give for `CCC1(C)CC(C(N)=S)CCO1` (stereo unspecified) here?
Answer: Its Potency is “inactive”.

Question: Which Potency [1] does the source give for `CCC(=O)N(CCC(c1ccco1)c1ccccc1OC)Cc1cccs1` (stereo unspecified) here?
Answer: The Potency was inconclusive [activator, partial curve].

Question: With `O=C1CCCCC1(CCc1ccncc1)CCc1ccncc1` as the compound, how does the Potency [1] read?
Answer: Its Potency is inconclusive [activator, full curve, poor fit].

Question: With `O=S(=O)(c1ccc(NC(=S)N/N=C/c2ccc(O)c(O)c2)cc1)N1CCOCC1` as the compound, how does the Potency [1] read?
Answer: Its Potency is “inactive”.

Question: Which Potency [1] does the source give for `COc1cc(OC)c(OC)cc1/C=N/n1c(C)nc2ccccc2c1=O` here?
Answer: The Potency was “inactive”.

Question: For `COc1cccc2c(Cl)c(CCCl)c(C)nc12`, which Potency [1] is on record?
Answer: The Potency was “inactive”.

Question: For `COc1ccc(-c2cc(-c3cccnc3)c(C#N)c(N)n2)cc1`, which Potency [1] is on record?
Answer: Its Potency is inconclusive [activator, single point].

Question: With `COc1ccccc1NC(=S)Nc1ccccn1` as the compound, how does the Potency [1] read?
Answer: Its Potency is “inactive”.

Question: With `COC(=O)c1ccc(COc2ccc(C=O)cc2OC)o1` as the compound, how does the Potency [1] read?
Answer: Its Potency is “inactive”.

Question: For `O=C(NCc1nnc(SCc2ccc(F)cc2)n1-c1ccccc1)C12CC3CC(CC(C3)C1)C2`, which Potency [1] is on record?
Answer: Its Potency is inconclusive [activator, partial curve, poor fit].

Question: For `CCn1c(SCC(=O)Nc2nc(C)c(C)s2)nc2cccnc21`, which Potency [1] is on record?
Answer: Its Potency is inconclusive [activator, partial curve, poor fit].

Question: Which Potency [1] does the source give for `COc1ccc(/C=N/NC(=O)C2(C)NC(C)(C)Cc3ccccc32)cc1` (stereo unspecified) here?
Answer: Its Potency is inconclusive [activator, partial curve, poor fit].

Question: For `O=C(/C=C/c1ccc2ccccc2n1)N1CCN(S(=O)(=O)c2ccccc2F)CC1`, which Potency [1] is on record?
Answer: The Potency was inconclusive [activator, single point].

Question: Which Potency [1] does the source give for `COc1cccc(/C=N/Nc2ccc([N+](=O)[O-])cc2)c1O` here?
Answer: The Potency was inconclusive [activator, partial curve, poor fit].

Question: Which Potency [1] does the source give for `CC(C)(C)c1nnc2sc(SCC(=O)c3ccc(Cl)cc3)nn2c1=O` here?
Answer: The Potency was inconclusive [activator, single point].

Question: For `CC1=NNC(=O)c2ccccc2O1`, which Potency [1] is on record?
Answer: The Potency was inconclusive [activator, partial curve, poor fit].

Question: Which Potency [1] does the source give for `CNS(=O)(=O)c1cccc(C(=O)OCC(=O)Nc2ccc(N3CCCCC3)cc2)c1` here?
Answer: Its Potency is inconclusive [activator, single point].

Question: Which Potency [1] does the source give for `Cc1cc(C)c(C(=O)COC(=O)CCNS(=O)(=O)c2c(Cl)cccc2Cl)cc1C` here?
Answer: The Potency was inconclusive [activator, partial curve, poor fit].

Question: For `O=C(N/N=C/c1ccccc1F)c1cccc(NC(=O)c2ccccc2Cl)c1`, which Potency [1] is on record?
Answer: The Potency was inconclusive [activator, single point].

Question: Which activity, positive = re-replication [1] does the source give for `O=C(CSc1nnc2scc(-c3ccccc3)n12)NCc1ccco1` here?
Answer: The activity, positive = re-replication was inconclusive: -45.7% [activator].

Question: And the activity, positive = re-replication (at 46.1 µM (top of the series))?
Answer: Its activity, positive = re-replication is inactive: -0.208%.

Question: For `CSc1ccc(/C=C(/NC(=O)c2ccc(C)cc2)C(=O)Nc2cccc(C)c2)cc1`, which Potency [1] is on record?
Answer: Its Potency is “inactive”.

Question: With `O=C(CN1CCN(Cc2ccc(Cl)cc2)C1=O)NCCCN1CCN(c2ccc(F)cc2)CC1` as the compound, how does the Potency [1] read?
Answer: The Potency was inconclusive [activator, partial curve, poor fit].

Question: For `COC(=O)c1ccc(/C=C2/SC(=S)N(CCC(=O)NCCCN3CCOCC3)C2=O)cc1`, which Potency [1] is on record?
Answer: The Potency was inconclusive [activator, full curve, poor fit].

Question: For `Cc1cccc(N2CCN(C(=O)c3ccc(Cl)c(NC4=NC5CS(=O)(=O)CC5S4)c3)CC2C)c1` (stereo unspecified), which Potency [1] is on record?
Answer: The Potency was “inactive”.

Question: With `O=C(Nc1ccccc1Sc1ccccc1)C1CCCO1` (stereo unspecified) as the compound, how does the Potency [1] read?
Answer: The Potency was inconclusive [activator, partial curve, poor fit].

Question: For `COc1ccc(OCC(=O)NNC(=O)Cn2c(=O)cnc3ccccc32)cc1`, which Potency [1] is on record?
Answer: Its Potency is “inactive”.

Question: For `COc1ccccc1Oc1ccc(S(=O)(=O)N2CCCCC2C)cc1` (stereo unspecified), which Potency [1] is on record?
Answer: Its Potency is inconclusive [activator, partial curve, poor fit].

Question: With `CC(C(=O)O)c1ccc(C(=O)c2ccccc2)s1` (stereo unspecified) as the compound, how does the Potency [1] read?
Answer: The Potency was inconclusive [activator, partial curve, poor fit].

Question: For `CCOc1cc(NC(=O)c2ccco2)c(OCC)cc1NC(=O)c1ccco1`, which Potency [1] is on record?
Answer: The Potency was inconclusive [activator, full curve, poor fit].

Question: Which Potency [1] does the source give for `COCCN(C(=O)c1cc(CN2C(=O)c3ccccc3C2=O)ccc1OC)c1c(N)n(CC(C)C)c(=O)[nH]c1=O` here?
Answer: Its Potency is inconclusive [activator, partial curve].

Question: For `OC(Cn1cncn1)(c1ccccc1)c1ccccc1`, which Potency [1] is on record?
Answer: Its Potency is “inactive”.

Question: For `CC(=O)c1sc(NC(=O)c2ccc(COc3ccccc3Cl)o2)nc1C`, which Potency [1] is on record?
Answer: Its Potency is inconclusive [activator, partial curve, poor fit].

Question: For `CCCC1CCC(c2ccc(OCC)cc2)=CC1=O` (stereo unspecified), which Potency [1] is on record?
Answer: The Potency was “inactive”.

Question: With `CCCNc1nc(Nc2ccc(C)cc2)nc(N2CCCC2)n1` as the compound, how does the Potency [1] read?
Answer: Its Potency is inconclusive [activator, partial curve, poor fit].

Question: Which Potency [1] does the source give for `COC(=O)c1cccc(NC(=S)Nc2cc(Cl)ccc2OC)c1` here?
Answer: The Potency was inconclusive [activator, partial curve, poor fit].

Question: Which Potency [1] does the source give for `CC1Oc2ccccc2C=C1/C=N/Nc1ccc(C(=O)O)cc1` (stereo unspecified) here?
Answer: The Potency was active: 23.1 µM.

Question: Which Potency [1] does the source give for `COc1ccc(C(=O)NCc2ccc(-c3nc4ccccc4s3)cc2)cc1` here?
Answer: Its Potency is “inactive”.

Question: With `CC(=O)Nc1c(Br)cc2c(c1Br)Cc1cc([N+](=O)[O-])ccc1-2` as the compound, how does the Potency [1] read?
Answer: The Potency was inconclusive [activator, single point].
